This note sets out measurements from publication PMC4336329 (PLoS ONE, 2015).

Out of some 310,000 compounds screened, about 14,000 (4.5%) showed an effect of 50% or more. Effects have a minus sign here. The list shows a part of the results.
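Also: peak tail current of the secondary pulse compared with the same well before compound.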

In the assay the target is human ether-à-go-go-related gene (hERG) potassium channel (human, UniProt Q12809). As to the kind of experiment: primary screen, population patch clamp on CHO cells stably expressing hERG.
Chain of human ether-à-go-go-related gene (hERG) potassium channel (Q12809 whole entry, looked up): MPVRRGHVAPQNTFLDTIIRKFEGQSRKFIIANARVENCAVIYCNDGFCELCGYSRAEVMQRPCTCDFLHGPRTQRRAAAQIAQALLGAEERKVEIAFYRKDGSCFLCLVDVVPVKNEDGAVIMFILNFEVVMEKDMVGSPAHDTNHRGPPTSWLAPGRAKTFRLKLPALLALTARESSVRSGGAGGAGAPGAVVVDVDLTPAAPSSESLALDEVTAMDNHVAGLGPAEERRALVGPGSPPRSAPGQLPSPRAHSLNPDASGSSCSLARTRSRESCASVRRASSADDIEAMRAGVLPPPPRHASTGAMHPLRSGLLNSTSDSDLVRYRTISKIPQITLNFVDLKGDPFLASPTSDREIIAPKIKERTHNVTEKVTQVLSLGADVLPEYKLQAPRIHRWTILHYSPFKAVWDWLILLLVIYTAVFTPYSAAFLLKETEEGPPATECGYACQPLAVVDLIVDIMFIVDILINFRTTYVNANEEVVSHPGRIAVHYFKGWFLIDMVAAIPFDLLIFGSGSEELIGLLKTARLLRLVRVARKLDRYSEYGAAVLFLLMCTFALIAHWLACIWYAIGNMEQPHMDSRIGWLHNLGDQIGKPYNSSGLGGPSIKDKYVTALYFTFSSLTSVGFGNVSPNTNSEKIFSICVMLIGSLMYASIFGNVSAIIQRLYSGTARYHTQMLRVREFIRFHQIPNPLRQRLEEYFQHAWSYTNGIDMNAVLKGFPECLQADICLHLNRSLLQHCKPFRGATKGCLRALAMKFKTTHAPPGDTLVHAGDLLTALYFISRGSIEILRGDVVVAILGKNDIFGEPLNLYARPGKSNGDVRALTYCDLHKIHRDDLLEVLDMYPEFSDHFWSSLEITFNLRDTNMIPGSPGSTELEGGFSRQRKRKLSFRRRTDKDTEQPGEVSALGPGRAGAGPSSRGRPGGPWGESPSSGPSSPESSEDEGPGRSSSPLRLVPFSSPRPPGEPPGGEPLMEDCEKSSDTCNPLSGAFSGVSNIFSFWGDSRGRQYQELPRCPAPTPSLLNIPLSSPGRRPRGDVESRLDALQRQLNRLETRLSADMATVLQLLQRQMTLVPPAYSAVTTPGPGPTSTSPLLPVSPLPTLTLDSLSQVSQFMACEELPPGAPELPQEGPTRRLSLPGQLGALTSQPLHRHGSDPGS
Take `CS(=O)(=O)N1CCC(C(=O)Nc2cc(C(F)(F)F)ccc2Cl)CC1`: the “hERG current change (%, negative = inhibition) at 10uM” value is listed as -6.72%.

In the case of `CC(=O)Nc1cccc(NC(=O)CSc2n[nH]c(-c3ccccc3)n2)c1`, the “hERG current change (%, negative = inhibition) at 10uM” value is 10.6%.

Take `Cn1c(=O)c2c(SCC(=O)N3CCCc4ccccc43)nc(C3CC3)nc2n(C)c1=O`: the “hERG current change (%, negative = inhibition) at 10uM” value was -6.42%.

Turning to `CCOC(=O)C1Nc2c(cc(C(F)(F)F)cc2[N+](=O)[O-])C2c3ccccc3CC12` (stereo not shown), the “hERG current change (%, negative = inhibition) at 10uM” value was determined as 2.2%.

For the compound `Cc1ccc(NC(=S)NCC2CCCO2)cc1` (stereo not shown), the “hERG current change (%, negative = inhibition) at 10uM” value is on record as -21%.

For the compound `C#Cc1ccc([C@H]2C=C(C(=O)Nc3ccccc3)O[C@@H](OCc3ccc(CO)cc3)C2)cc1`, the “hERG current change (%, negative = inhibition) at 10uM” value came to 6.29%.

As to `Cc1cc(C(=O)COC(=O)C2=NNC(=O)CC2)c(C)n1-c1ccccc1`, the “hERG current change (%, negative = inhibition) at 10uM” value was -7.67%.

On to `Cc1cc(C)cc(NC(=O)c2cccc3c2C(=O)N(C2CCCCC2)C3)c1`, for which the “hERG current change (%, negative = inhibition) at 10uM” value was determined as 9.7%.

With `CC(C)C1CCN(C(=O)C2CCC(=O)N(CCc3ccc(Cl)cc3)C2)CC1` (stereo not shown), the “hERG current change (%, negative = inhibition) at 10uM” value is -52.6%.

On to `CN(CC1CCOCC1)C(=O)CC1C(=O)NCCN1Cc1ccccc1F` (stereo not shown), for which the “hERG current change (%, negative = inhibition) at 10uM” value is 14.3%.

On to `Cc1cc(CN(C)C(=O)CC2C(=O)NCCN2Cc2ccc(F)c(F)c2)on1` (stereo not shown), for which the “hERG current change (%, negative = inhibition) at 10uM” value is 31.1%.

In the case of `Cc1ccc(-n2c(SCC(=O)NCc3ccco3)nc3c(sc4ccccc43)c2=O)cc1`, the “hERG current change (%, negative = inhibition) at 10uM” value was found to be 14.8%.

`COc1ccc(CN(C)C(=O)Cc2c[nH]c3ccccc23)c(OC)c1OC`: the “hERG current change (%, negative = inhibition) at 10uM” value was 12.4%.

As for `Cc1cc(-c2cc(-c3ccc(Cl)cc3)nc(N)c2C#N)co1`, the “hERG current change (%, negative = inhibition) at 10uM” value was -1.55%.

On to `COc1ccc(CCC2CCNCC2)cc1.Cl`, for which the “hERG current change (%, negative = inhibition) at 10uM” value is on record as 8.29%.

Take `COc1ccc(OCC(=O)Nc2ccc(S(=O)(=O)N3CCN(C)CC3)cc2)cc1`: the “hERG current change (%, negative = inhibition) at 10uM” value was found to be 0.00648%.

For the compound `Clc1ccc(SCc2cc(Cl)nc(-c3ccccc3)n2)cc1`, the “hERG current change (%, negative = inhibition) at 10uM” value turned out to be 12.2%.

`O=C(CC(CC(=O)c1ccc(Br)cc1)c1cccnc1)c1ccc(Br)cc1`: the “hERG current change (%, negative = inhibition) at 10uM” value turned out to be 15.4%.

In the case of `CC1=NN(C(C#N)c2c(C)nn(Cc3ccccc3)c2C)C(C)(C)C1` (stereo not shown), the “hERG current change (%, negative = inhibition) at 10uM” value came out at 17.3%.

Take `CCOC(=O)c1ccc(NCc2ccncc2)cc1`: the “hERG current change (%, negative = inhibition) at 10uM” value is recorded as -1.66%.

Regarding `Cc1c(C(=O)N(Cc2cccc(Br)c2)C2CCS(=O)(=O)C2)oc2ccc(F)cc12` (stereo not shown), the “hERG current change (%, negative = inhibition) at 10uM” value is 6.32%.

Consider `N#Cc1cc(C#N)c(N2CCN(c3cccc(Cl)n3)CC2)nc1N`, for which the “hERG current change (%, negative = inhibition) at 10uM” value is -43.8%.

With `Cc1cc(C(=O)N2CCCC(N3CCN(c4cccc(C(F)(F)F)c4)CC3)C2)nn1C` (stereo not shown), the “hERG current change (%, negative = inhibition) at 10uM” value was -16.7%.

Regarding `O=S(=O)(c1ccc(Cl)cc1Cl)N1CCCC1c1cccnc1` (stereo not shown), the “hERG current change (%, negative = inhibition) at 10uM” value is 7.32%.

Regarding `CCC(C)NC(=O)C1(O)c2cc(Br)ccc2NC(=O)N1c1cccc(OC)c1` (stereo not shown), the “hERG current change (%, negative = inhibition) at 10uM” value was determined as 16.7%.

With `CCN1CCCC(OC(=O)c2cc(-c3ccccc3Cl)nc3ccccc23)C1.Cl` (stereo not shown), the “hERG current change (%, negative = inhibition) at 10uM” value is -65.3%.

For the compound `Cn1c(NC(=O)c2ccc(Br)o2)cc(=O)n(C)c1=O`, the “hERG current change (%, negative = inhibition) at 10uM” value is -8.27%.

With `CCOC(=O)c1cncc(C#CCOC(=O)Nc2ccc(OC(F)(F)F)cc2)c1`, the “hERG current change (%, negative = inhibition) at 10uM” value amounted to 17.9%.

As to `CC(C)Cc1nn2c(=O)cc(COc3ccc(NC(=O)c4ccco4)cc3)nc2s1`, the “hERG current change (%, negative = inhibition) at 10uM” value is 13.1%.

As to `Cc1csc(NC(=O)c2nc(-c3ccccc3)n(-c3ccccc3)n2)n1`, the “hERG current change (%, negative = inhibition) at 10uM” value is on record as -79.2%.

`COC(=O)C(C(=O)OC)c1ncc(C(F)(F)F)cc1Cl`: the “hERG current change (%, negative = inhibition) at 10uM” value is 28.2%.

Turning to `O=C(Nc1nnc(-c2cc(Cl)ccc2Cl)o1)C1=COCCO1`, the “hERG current change (%, negative = inhibition) at 10uM” value is listed as -7.18%.

On to `O=C(NNC(=O)c1cccs1)c1ccc(Cl)nc1`, for which the “hERG current change (%, negative = inhibition) at 10uM” value was -5.05%.

Take `O=C(COC(=O)/C=C/c1ccc2c(c1)OCO2)NC1CC1`: the “hERG current change (%, negative = inhibition) at 10uM” value is on record as -0.722%.

As for `CCc1ccc(NC(=O)CCS(=O)(=O)c2cccc3nsnc23)cc1`, the “hERG current change (%, negative = inhibition) at 10uM” value is given as -33%.

As for `CCN(CC(=O)Nc1ccc(NC(C)=O)cc1)C(=O)Cc1ccc(S(=O)(=O)N2CCOCC2)s1`, the “hERG current change (%, negative = inhibition) at 10uM” value worked out at 4.75%.

As for `CCC(=NCCN1CCNCC1)C1=C(O)CC(C)(C)CC1=O`, the “hERG current change (%, negative = inhibition) at 10uM” value turned out to be 0.851%.

Turning to `CCOC(=O)C(=Cc1ccc(Br)cc1)C(=O)OCC`, the “hERG current change (%, negative = inhibition) at 10uM” value was 2.7%.

As for `CCOC(CNC(=O)c1ccc2c(c1)ncn2-c1cccc(F)c1)OCC`, the “hERG current change (%, negative = inhibition) at 10uM” value is reported as -17.3%.

As for `C=CCn1cc(C(=O)NCCN(CC)CC)c(=O)c2cc(S(=O)(=O)N3CCCCCC3)ccc21`, the “hERG current change (%, negative = inhibition) at 10uM” value is -71.6%.

Consider `Cc1onc(C(=O)NN)c1-c1csc(COc2ccc(Cl)cc2)n1`, for which the “hERG current change (%, negative = inhibition) at 10uM” value is reported as -15.1%.

Consider `COc1cccc(OCCn2cc(C=O)c3ccccc32)c1`, for which the “hERG current change (%, negative = inhibition) at 10uM” value worked out at 15.2%.

`CCOc1ccc(CCNC(=O)C(CCC(N)=O)NC(=O)OCc2ccccc2)cc1OCC` (stereo not shown): the “hERG current change (%, negative = inhibition) at 10uM” value amounted to 8.5%.

For the compound `COc1ccc(-c2cc(C(=O)N3CCc4ccccc4C3)no2)cc1OC`, the “hERG current change (%, negative = inhibition) at 10uM” value is reported as -9.63%.

`O=C(COc1ccc(Cl)cc1Cl)OCn1nnc2ccccc2c1=O`: the “hERG current change (%, negative = inhibition) at 10uM” value is recorded as 16.8%.

For the compound `CCC(=O)Nc1ccc(NC(=S)NC(=O)/C=C/c2ccccc2)cc1`, the “hERG current change (%, negative = inhibition) at 10uM” value is given as 11.1%.

`COc1ccc(NC(=O)CN(C)C(=O)c2c(C)nn(Cc3ccccc3)c2C)cc1`: the “hERG current change (%, negative = inhibition) at 10uM” value is 0.0577%.

For the compound `COC(=O)CSc1nc2ccccc2c(=O)n1Cc1ccccc1`, the “hERG current change (%, negative = inhibition) at 10uM” value is listed as -6.98%.

Consider `O=C(CCC(=O)N1CCOc2ccccc21)Nc1ccccc1Br`, for which the “hERG current change (%, negative = inhibition) at 10uM” value was -27.9%.

As to `CC1Cc2cc(S(=O)(=O)NCCC(=O)N(C)Cc3ccccc3)ccc2N1C(=O)C1CC1` (stereo not shown), the “hERG current change (%, negative = inhibition) at 10uM” value is -9.73%.

`Cc1onc(C(=O)NN)c1C(=O)N1CCN(C(c2ccccc2)c2ccccc2)CC1`: the “hERG current change (%, negative = inhibition) at 10uM” value was determined as 9.34%.

For the compound `CCCn1c(SCC(=O)OCC)nc(C(F)(F)F)cc1=O`, the “hERG current change (%, negative = inhibition) at 10uM” value worked out at 0.311%.

As to `O=C(COc1ccccc1Br)NCc1ccco1`, the “hERG current change (%, negative = inhibition) at 10uM” value is -18.5%.

As to `Cc1ccc(OCC(=O)c2cc(C)n(Cc3ccco3)c2C)c([N+](=O)[O-])n1`, the “hERG current change (%, negative = inhibition) at 10uM” value was 0.256%.

In the case of `CCOc1ccc(N/C(=C(/C(Cl)=C(Cl)Cl)[N+](=O)[O-])n2cncn2)cc1`, the “hERG current change (%, negative = inhibition) at 10uM” value was -13.7%.
